# Measured values: article PMC6919601, “Identification of Plasmodium dipeptidyl aminopeptidase allosteric inhibitors by high throughput screening” (PLoS ONE, 2019)
# Out of some 110,000 compounds screened, about 230 (0.21%) showed an effect of 50% or more. Some of the results follow.
# Biological target: DPAP1 (Plasmodium falciparum, UniProt Q8IIJ9)
# Test: primary screen, percent inhibition; read by cleavage of a fluorogenic dipeptide substrate; higher = more effect of the substance
# Parameters: species or system P. falciparum D10 trophozoite lysates; single well
# 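Also: 30 min substrate incubation versus DMSO and 10 µM JCP410 controls.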
# DPAP1, sequence (Q8IIJ9 whole entry, looked up): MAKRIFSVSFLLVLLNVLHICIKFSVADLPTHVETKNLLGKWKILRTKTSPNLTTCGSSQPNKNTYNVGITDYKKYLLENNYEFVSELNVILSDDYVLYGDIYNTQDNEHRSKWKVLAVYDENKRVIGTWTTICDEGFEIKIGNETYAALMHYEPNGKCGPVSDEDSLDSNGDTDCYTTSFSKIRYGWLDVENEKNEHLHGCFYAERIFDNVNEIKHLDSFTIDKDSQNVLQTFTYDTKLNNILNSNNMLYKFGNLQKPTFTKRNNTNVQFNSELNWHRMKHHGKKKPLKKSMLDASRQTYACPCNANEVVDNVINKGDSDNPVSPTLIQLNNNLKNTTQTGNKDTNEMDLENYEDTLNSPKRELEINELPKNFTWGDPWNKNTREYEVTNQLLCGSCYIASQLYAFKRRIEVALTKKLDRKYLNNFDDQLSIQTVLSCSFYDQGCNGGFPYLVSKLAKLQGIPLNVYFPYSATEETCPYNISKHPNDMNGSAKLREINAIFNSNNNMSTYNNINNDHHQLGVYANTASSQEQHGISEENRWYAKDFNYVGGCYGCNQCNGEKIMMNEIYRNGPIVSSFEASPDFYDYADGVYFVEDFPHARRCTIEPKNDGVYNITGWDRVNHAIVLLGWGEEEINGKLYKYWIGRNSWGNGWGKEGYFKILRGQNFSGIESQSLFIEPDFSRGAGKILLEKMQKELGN
row,SMILES,% Inhibition @ 10 uM
1,C=CCc1ccccc1OCCSc1nc(-c2ccco2)nc2cc(=O)[nH]n12,-2.48%
2,CCCCOc1ccc(C(C)NC(=O)C2CC(=O)N(CCc3ccc(C)cc3)C2)cc1 (centres unmarked),-1.79%
3,Cc1ccc(N2C(=O)C3C4C=CC(C4)C3C2=O)cc1Br (centres unmarked),10.1%
4,CSCC[C@@H](C(=O)NCc1cccc(C(C)=O)c1)N1Cc2ccccc2C1=O,-4.1%
5,O=C1C2C3CCC(C3)C2C(=O)N1Cc1ccc(F)cc1 (centres unmarked),9.86%
6,CN1C(=O)C(=CNc2ccccc2Br)C(=O)N(C)C1=O,-2.87%
7,Cc1nc2ccc(Br)cc2c2c1CC(C)S2 (centres unmarked),-2.89%
8,Cc1onc(-c2ccccc2)c1C(=O)N1CCN(c2cccc(C(F)(F)F)c2)CC1,-1.55%
9,CC(C)CC(C(=O)NCC#N)c1cccc(-c2csc(N3CCN(CCO)CC3)n2)c1 (centres unmarked),-8.26%
10,Cc1ccc(N2C(=O)C3C4CCC(C4)C3C2=O)cc1Cl (centres unmarked),-1.2%
11,CC(C)CCNC(=O)c1ccc(CS(=O)c2cccc(Cl)c2)o1 (centres unmarked),3.62%
12,CCCCCc1nnc(NC(=O)c2ccccc2Cl)s1,0.997%
13,COc1ccc2cc3c(N)nn(C(=O)Cc4ccccc4OC)c3nc2c1,-3.06%
14,CCCc1cc(O)n2nc(C)c(-c3ccc(OC)cc3)c2n1,-0.267%
15,Cc1ccc(CNC(=O)c2cccc3c2C(=O)N(C2CCCCC2)C3)cc1,2.9%
16,Cc1cccc(NC(=O)c2cccc(S(=O)(=O)NCc3ccccc3)c2)c1,-3.66%
17,CN1CCN(CCNC(=O)Cn2ncc3c4ccccc4n(Cc4ccc(F)cc4)c3c2=O)CC1,-7.1%
18,Cn1c(=O)[nH]c2nnc(-c3ccccc3)nc2c1=O,-2.85%
19,O=C(Nc1ccccc1OC(F)F)c1cccc(OC(F)F)c1,-5.6%
20,COc1ccc(C=C2C(=O)NC(=S)NC2=O)cc1Br,0.927%
21,COc1ccc(-n2c(=S)[nH]c3sc4c(c3c2=O)CCCCC4)cc1,12.4%
22,Cc1cc(C)c(C(=O)CSc2nc(C)cc(C)n2)c(C)c1,5.51%

row,SMILES,% Inhibition @ 10 uM
1,CN(C(=O)c1cc2c(s1)-c1ccccc1OC2)C1CCCCC1,0.291%
2,Cc1ccc(S(=O)(=O)c2cc3c(=O)n4cccc(C)c4nc3n(CCN3CCOCC3)c2=N)cc1,-1.52%
3,Cc1ccc(S(=O)(=O)N2CCCC(C(=O)NC3CCCc4ccccc43)C2)cc1 (centres unmarked),-1.34%
4,O=C(COc1ccc(Cl)cc1)NCc1ccc2c(c1)OCO2,0.611%
5,Cc1ccccc1C(=O)OC1OC(=O)C(Cl)=C1N1CCOCC1 (centres unmarked),-1.47%
6,COc1ccc(NC(=O)CSc2nccn2C)c(OC)c1,0.343%
7,COc1cc(/C=C2\NC(=O)NC2=O)ccc1OCC(=O)Nc1ccc(F)cc1,0.245%
8,CC(Cc1ccccc1F)N1CCC(C(N)=O)CC1 (centres unmarked),-1.64%
9,CC1ON(c2ccc(Cl)cc2)C(=O)NC1=O (centres unmarked),-1.45%
10,CCC(C)N1C(=O)CN(C2CCC(C)CC2)C(=O)C1c1ccc(F)cc1 (centres unmarked),4.47%
11,Cc1cccc(NC(=O)c2cc3c(ccc4ccccc43)oc2=O)n1,1.37%
12,Cn1cc(Cl)c(C(=O)Nc2cnn(Cc3ccc(Cl)cc3Cl)c2)n1,-1.37%
13,CC(C)c1ccc(/C=c2\sc3nc(-c4ccncc4)nn3c2=O)cc1,0.222%
14,COc1ccc(C2c3c(n(C)c4ccccc34)C(=O)N2CC(=O)NCc2cccs2)cc1 (centres unmarked),1.63%
15,CC1(c2ccccc2)OC(=O)C(=Cc2ccc(O)cc2)C(=O)O1 (centres unmarked),-1.47%
16,CCCCNc1ccc(C(=O)N[C@@H](CC(C)C)C(=O)NCC#N)cc1,-3.04%
17,CC1CCCC(N(CCO)CCO)C1 (centres unmarked),-1.81%
18,NCCCCCCNC(=O)c1c(O)oc2ccccc2c1=O,-1.69%
19,O=C(/C=C/c1ccco1)NCCCN1CCOCC1,5.69%
20,COc1cc2c(cc1OC)CN(Cc1cc(OC)c(OC)c(OC)c1)CC2,1.2%
21,O=C(Cc1ccc(F)cc1F)NC1CCCCC1,-3.15%
22,Clc1ccc(-c2csc(-c3ccccn3)n2)cc1,-6.04%

row,SMILES,% Inhibition @ 10 uM
1,O=S(=O)(Nc1ccncc1)c1ccc(-c2ccc(Cl)cc2)cc1,7.37%
2,COc1ccc(N2CCN(C/C=C/c3ccc(N(C)C)cc3)CC2)cc1,-1.64%
3,CC1(c2cccnc2)CC(=O)c2cc(O)ccc2O1 (centres unmarked),6.13%
4,Cc1cccc(NC(=O)CC[C@H](NC(=O)c2ccc(Br)cc2)C(=O)NCC#N)c1,-4.72%
5,Cc1cc(Cl)ccc1OC(C)C(=O)Nc1ccc(F)c(F)c1 (centres unmarked),-1.42%
6,CCc1nnc(SCc2ccc(OCCC(C)C)cc2)n1N,-3.33%
7,COc1cc2c(cc1OC)C(c1ccccc1)N(C(=O)C(C)(C)C)CC2 (centres unmarked),2.24%
8,Cc1ccc(Sc2c(C(=O)NCC3CCCO3)[nH]c3ccccc23)cc1 (centres unmarked),-6.99%
9,CCOC(=O)c1cc(S(=O)(=O)NCCc2ccc(Cl)cc2)cn1C,-6.59%
10,CC(C)CC(=O)Nc1nnc(S(=O)(=O)N2CCOCC2)s1,14.6%
11,O=C(NCCCn1ccnc1)c1nn2c(C(F)(F)F)cc(-c3cccs3)nc2c1Cl,1.02%
12,Cc1ccc(C(=O)c2coc3ccc(OCC(=O)O)cc23)cc1,18.3%
13,CC(=O)N(C)c1ccc(NC(=O)COc2ccc(C)cc2)cc1,-4.18%
14,O=C(CCn1c(=O)[nH]c2ccsc2c1=O)NCCSCc1ccccc1,-7.33%
15,CC(C)C[C@H](NC(=O)OCc1ccc(F)cc1Cl)C(=O)NCC#N,-4.72%
16,CC1CCC(C(=O)NC(C(=O)NC2CCCC(C)C2C)C(C)C)CC1 (centres unmarked),-5.67%
17,CCN(CC)S(=O)(=O)c1ccc(C(=O)OCCN2C(=O)CCC2=O)cc1,-4.84%
18,COc1ccccc1CCNC(=O)CCC(=O)N1CCSc2ncccc21,-7.47%
19,Cc1cccc(C)c1NC(=O)c1ccc(OC(F)F)cc1,-5.06%
20,CC(=O)Nc1ccc(S(=O)(=O)N2CCCCCC2)cc1,-1.93%
21,Cc1c(-c2ccccc2)n(-c2cccc(O)c2)c2nc3c(c(=O)n(C)c(=O)n3C)n12,0.772%
